Measured values published in the supplement of paper PMC10369915.
This is one part of the list. Rule as the data show it: active = 3.2 or more and inactive = the rest. Only a few entries rise above the background.

Key:
Experiment in all cases: enrichment score (SH2-bound / input frequency) (ratio); bacterial display of known human phosphotyrosine sites (pTyr-Var adds point mutants) read by sequencing; higher = stronger binding; tyrosines were phosphorylated by kinases first
Conditions in all cases: peptide library: pTyr-Var
[1] = target: SHP2 C-SH2 domain E139D
[2] = target: SHP2 C-SH2 domain wild-type
[3] = target: SHP2 N-SH2 domain L43F
[4] = target: SHP2 N-SH2 domain T42A
[5] = target: SHP2 N-SH2 domain T52S
[6] = target: SHP2 N-SH2 domain wild-type

Measured: enrichment score
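Also: displayed peptides selected on beads carrying the immobilized SH2 domain, with library peptides lacking any tyrosine serving as negative controls.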

PSDLLYILDIQ [ITGA2B_Y845]
inactive: [1] 1.22 | [2] 1.03 | [3] 0.924 | [4] 0.645 | [5] 1.5 | [6] 0.86

WDLPEYSYKDP [ITGA3_Y237_S235P]
inactive: [1] 1.28 | [2] 1.18 | [3] 1.6 | [4] 1.07 | [5] 1.36 | [6] 1.06

EEGRVYVYRLS [ITGAE_Y549]
inactive: [1] 0.76 | [2] 1.35 | [3] 0.77 | [4] 0.688 | [5] 0.954 | [6] 0.79

EEGRVYVFHLS [ITGAE_Y549_R552H_YF]
inactive: [1] 0.811 | [2] 1.14 | [3] 0.993 | [4] 0.988 | [5] 0.698 | [6] 0.79

GRVYVYHLSEQ [ITGAE_Y551_R552H]
inactive: [1] 1.55 | [2] 2.56 | [3] 1.73 | [4] 1.23 | [5] 1.94 | [6] 1.33

GRVFVYHLSEQ [ITGAE_Y551_R552H_YF]
active: [5] 3.27
inactive: [1] 1.15 | [2] 1.14 | [3] 2.8 | [4] 0.86 | [6] 1.4

RRAKGYPINLY [ITGB2_Y125_D128N]
inactive: [1] 0.246 | [2] 0.349 | [3] 0.213 | [4] 0.266 | [5] 0.276 | [6] 0.296

PIDLYYLMDLS [ITGB2_Y131]
inactive: [1] 1.55 | [2] 1.88 | [3] 1.97 | [4] 2.03 | [5] 1.66 | [6] 2.21

PINLFYLMDLS [ITGB2_Y131_D128N_YF]
inactive: [1] 0.972 | [2] 1.19 | [3] 0.966 | [4] 0.951 | [5] 1 | [6] 1.28

NTCNRYCCDEI [ITGB3_Y660_R662C]
inactive: [1] 0.754 | [2] 0.982 | [3] 0.959 | [4] 0.751 | [5] 0.684 | [6] 1.05

FDRREYSRFEK [ITGB7_Y758_YF]
inactive: [1] 0.632 | [2] 0.566 | [3] 0.619 | [4] 0.474 | [5] 0.495 | [6] 0.738

QRNEEYCLLDS [ITK_Y198_R193Q]
inactive: [1] 0.749 | [2] 0.805 | [3] 0.695 | [4] 0.739 | [5] 0.595 | [6] 0.873

IKKLIYVYLVI [JAGN1_Y42_H44Y]
inactive: [1] 0.621 | [2] 0.733 | [3] 0.505 | [4] 0.561 | [5] 0.832 | [6] 0.753

SLIDGYFRLTE [JAK2_Y372_A377E_YF]
inactive: [1] 1.32 | [2] 2.59 | [3] 1.13 | [4] 1.06 | [5] 0.982 | [6] 0.908

SLIDGYFRLTA [JAK2_Y372_YF]
active: [2] 3.54
inactive: [1] 1.81 | [3] 1.58 | [4] 1.42 | [5] 1.65 | [6] 1.64

LIDGYYRLTAD [JAK2_Y373]
active: [2] 3.28
inactive: [1] 1.27 | [3] 1.04 | [4] 0.975 | [5] 1.5 | [6] 0.985

ADAHHYLCKEV [JAK2_Y382]
inactive: [1] 1.13 | [2] 1.51 | [3] 1.37 | [4] 0.933 | [5] 1.38 | [6] 1.5

KLIMEYLPFGS [JAK2_Y931_YF]
inactive: [1] 1.27 | [2] 1.29 | [3] 1.2 | [4] 1.04 | [5] 1.19 | [6] 1.2

GMRHGYGVRQS [JPH2_Y141]
inactive: [1] 2.01 | [2] 1.31 | [3] 1.83 | [4] 1.36 | [5] 1.63 | [6] 1.53

EWQQIYTFDSG [JUP_Y20_T19I_YF]
inactive: [1] 1.44 | [2] 1.03 | [3] 1.19 | [4] 1.2 | [5] 1.25 | [6] 1.52

QQIYTYDSGIH [JUP_Y22_T19I]
inactive: [1] 1.04 | [2] 0.94 | [3] 0.869 | [4] 1.02 | [5] 0.836 | [6] 1.01

EGTATYAAAVL [JUP_Y644]
inactive: [1] 0.529 | [2] 0.534 | [3] 0.524 | [4] 0.87 | [5] 0.526 | [6] 0.667

EGTATYAAAIL [JUP_Y644_V648I]
inactive: [1] 0.639 | [2] 0.742 | [3] 0.445 | [4] 0.67 | [5] 0.53 | [6] 0.722

DMDATYRPMYS [JUP_Y701]
inactive: [1] 1.3 | [2] 0.72 | [3] 0.791 | [4] 0.41 | [5] 0.61 | [6] 0.683

VVQGLYKSMRK [KBTBD2_Y250_P254R]
inactive: [1] 1.08 | [2] 0.639 | [3] 0.586 | [4] 0.715 | [5] 0.795 | [6] 0.662

ASNFNYFFHRE [KCNA1_Y413_V408A_YF]
inactive: [1] 1.22 | [2] 1.36 | [3] 1.26 | [4] 0.973 | [5] 1.05 | [6] 1.23

NFRTTYVNANE [KCNH2_Y475]
inactive: [1] 1.33 | [2] 1.79 | [3] 1.16 | [4] 2.82 | [5] 1.31 | [6] 1.23

DFRTTYVNANE [KCNH2_Y475_N470D]
inactive: [1] 1.33 | [2] 2.2 | [3] 0.915 | [4] 3.17 | [5] 1.36 | [6] 1.07

NFRNTYVNANE [KCNH2_Y475_T473N]
inactive: [1] 1.83 | [2] 1.82 | [3] 2 | [4] 1.78 | [5] 1.64 | [6] 1.27

SIKHKYVTALF [KCNH2_Y611_D609H_YF]
inactive: [1] 0.822 | [2] 0.704 | [3] 0.89 | [4] 0.837 | [5] 0.86 | [6] 0.915

SIKNKYVTALF [KCNH2_Y611_D609N_YF]
inactive: [1] 0.834 | [2] 0.734 | [3] 1.14 | [4] 0.969 | [5] 1.35 | [6] 0.782

SIKDKYLTALY [KCNH2_Y611_V612L]
inactive: [1] 0.873 | [2] 0.875 | [3] 0.865 | [4] 0.807 | [5] 0.806 | [6] 1.11

SIKDKYVTALC [KCNH2_Y611_Y616C]
inactive: [1] 0.937 | [2] 0.812 | [3] 1.02 | [4] 0.725 | [5] 0.842 | [6] 0.946

SIKDKYVTALF [KCNH2_Y611_YF]
inactive: [1] 0.841 | [2] 0.85 | [3] 1.71 | [4] 1.22 | [5] 2.24 | [6] 0.993

PAEPRYRARQR [KCNJ11_Y26]
inactive: [1] 0.236 | [2] 0.252 | [3] 0.222 | [4] 0.276 | [5] 0.226 | [6] 0.206

SETSRYLSELF [KCNJ3_Y67_D70E]
inactive: [1] 0.844 | [2] 0.665 | [3] 0.742 | [4] 0.638 | [5] 0.699 | [6] 0.778

VITTLYIGFLG [KCNQ1_Y267_L262V]
inactive: [1] 2.6 | [4] 3.12 | [5] 2.7 | [6] 3.18
active: [2] 3.31 | [3] 3.23
